The values below come from publication PMC10026764, “Overcoming the imatinib-resistant BCR-ABL mutants with new ureidobenzothiazole chemotypes endowed with potent and broad-spectrum anticancer activity” (Journal of Enzyme Inhibition and Medicinal Chemistry, 2023).

This assay concerns the target ABL^Q252H (Homo sapiens, UniProt P00519, Q252H). In words: In vitro enzymatic activity, imatinib-resistant mutant panel. Format: biochemical.

SMILES strings stand for the structures.

With `CCN1CCN(c2ccc(NC(=O)Nc3nc4ccc(-c5ccccc5OC)cc4s3)cc2)CC1` [Compound 2b], the midpoint of inhibition, the IC50, lay at 3.64 nM.
